# Values joined by “and” are separate entries in the source; they are usually repeats but may differ in a detail not shown here. Equal values may be shown once. The whole screen tested about 360,000 compounds, of which about 16,000 (4.4%) were called active. This list was built around the results that the source calls inconclusive (neither active nor inactive); the mix of calls is not that of the screen. Calls follow the shape of the dose curve; as a rule, active = well fitted inhibition curve with a large enough effect; inconclusive = small, poorly fitted or top-dose-only effect; inactive = no such curve, though single readings can be large or run the other way. Potencies of inconclusive entries are doubtful fits and often do not repeat.
# Target: Bromodomain adjacent to zinc finger domain protein 2B (Homo sapiens) (UniProt Q9UIF8)
# Chain of UniProt Q9UIF8 (Q9UIF8 whole entry, looked up, the tested form may be a part): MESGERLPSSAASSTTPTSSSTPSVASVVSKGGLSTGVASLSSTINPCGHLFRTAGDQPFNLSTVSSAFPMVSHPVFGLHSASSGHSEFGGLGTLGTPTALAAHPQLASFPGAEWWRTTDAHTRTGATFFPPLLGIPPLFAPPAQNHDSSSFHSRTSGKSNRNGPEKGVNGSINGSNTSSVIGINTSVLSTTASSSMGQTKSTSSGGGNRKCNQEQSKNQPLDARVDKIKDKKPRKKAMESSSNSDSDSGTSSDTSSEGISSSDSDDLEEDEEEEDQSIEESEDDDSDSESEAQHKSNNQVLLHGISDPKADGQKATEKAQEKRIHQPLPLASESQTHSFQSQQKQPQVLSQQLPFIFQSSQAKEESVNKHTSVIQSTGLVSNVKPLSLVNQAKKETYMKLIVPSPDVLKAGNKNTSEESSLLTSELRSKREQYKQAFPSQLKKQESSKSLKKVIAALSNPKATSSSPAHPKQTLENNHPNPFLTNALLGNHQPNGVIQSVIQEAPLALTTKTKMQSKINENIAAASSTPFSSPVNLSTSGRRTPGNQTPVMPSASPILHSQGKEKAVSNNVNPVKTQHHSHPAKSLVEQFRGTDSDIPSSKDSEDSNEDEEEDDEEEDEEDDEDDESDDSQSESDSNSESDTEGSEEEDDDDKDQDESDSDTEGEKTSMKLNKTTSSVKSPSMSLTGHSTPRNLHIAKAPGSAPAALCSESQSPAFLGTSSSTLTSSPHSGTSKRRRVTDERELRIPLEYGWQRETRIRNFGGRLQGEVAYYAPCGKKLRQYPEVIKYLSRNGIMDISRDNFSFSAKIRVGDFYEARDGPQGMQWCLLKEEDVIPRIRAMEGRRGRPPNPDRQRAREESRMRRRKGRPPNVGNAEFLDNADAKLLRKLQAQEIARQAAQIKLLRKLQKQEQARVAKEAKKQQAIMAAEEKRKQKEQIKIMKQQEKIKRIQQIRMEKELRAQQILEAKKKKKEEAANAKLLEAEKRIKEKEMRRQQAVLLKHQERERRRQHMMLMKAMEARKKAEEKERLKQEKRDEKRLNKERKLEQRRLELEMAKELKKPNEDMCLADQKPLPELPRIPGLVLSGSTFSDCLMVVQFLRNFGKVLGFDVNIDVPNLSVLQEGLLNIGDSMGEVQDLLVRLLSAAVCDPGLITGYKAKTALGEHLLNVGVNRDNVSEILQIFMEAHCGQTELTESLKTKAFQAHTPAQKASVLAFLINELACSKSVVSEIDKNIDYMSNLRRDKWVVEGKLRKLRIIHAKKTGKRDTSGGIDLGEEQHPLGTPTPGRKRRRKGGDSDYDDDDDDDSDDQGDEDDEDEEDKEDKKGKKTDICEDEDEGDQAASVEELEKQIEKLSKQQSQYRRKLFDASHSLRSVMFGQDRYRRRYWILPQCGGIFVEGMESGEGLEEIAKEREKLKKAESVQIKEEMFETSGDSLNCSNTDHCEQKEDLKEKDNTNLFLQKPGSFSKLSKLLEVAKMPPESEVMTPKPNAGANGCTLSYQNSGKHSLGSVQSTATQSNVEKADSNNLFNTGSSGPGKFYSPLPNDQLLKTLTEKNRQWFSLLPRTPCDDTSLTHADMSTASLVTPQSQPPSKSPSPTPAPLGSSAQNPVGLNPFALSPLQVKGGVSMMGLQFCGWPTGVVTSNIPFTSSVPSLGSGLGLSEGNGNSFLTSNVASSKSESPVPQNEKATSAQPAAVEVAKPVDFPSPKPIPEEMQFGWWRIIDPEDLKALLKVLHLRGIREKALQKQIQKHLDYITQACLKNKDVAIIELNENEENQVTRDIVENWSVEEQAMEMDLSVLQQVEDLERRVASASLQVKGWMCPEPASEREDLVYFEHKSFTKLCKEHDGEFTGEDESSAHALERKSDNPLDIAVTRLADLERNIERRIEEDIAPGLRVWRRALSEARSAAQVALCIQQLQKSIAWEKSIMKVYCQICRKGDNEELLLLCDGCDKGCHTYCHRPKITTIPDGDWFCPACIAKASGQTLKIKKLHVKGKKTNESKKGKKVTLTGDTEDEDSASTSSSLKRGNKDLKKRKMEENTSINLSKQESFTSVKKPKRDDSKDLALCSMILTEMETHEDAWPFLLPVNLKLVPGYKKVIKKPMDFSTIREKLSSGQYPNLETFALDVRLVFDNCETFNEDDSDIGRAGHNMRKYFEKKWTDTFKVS
# Test: qHTS Assay for Inhibitors of BAZ2B; also: nearly all actives have a fitted effect of over 60% in size
# Settings: AlphaScreen BAZ2B-H3K14Ac peptide displacement; activity change, negative = inhibition: at 114 µM (top of the series)
# How it was run: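 Complex of BAZ2B and biotin-H3K14Ac (50 nM apiece) forms over 30 min at RT, then faces library compounds up to 110 uM for another 30 min; AlphaScreen beads added, 20 min dark incubation, luminescence read.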
# % is scaled to controls: 0 for no effect and ±100 for the full control effect; potency is read from the fitted curve at half-maximal effect; tags tell the direction and shape of the fitted curve.
SMILES,Potency,"activity change, negative = inhibition"
CCN(C(=O)COC(=O)c1cc(C)n(C2CC2)c1C)c1ccccc1,"inconclusive: 89.1 µM [inhibitor, single point]",–
C[N+]1(C)CCc2cc3c(cc2[C@H]1[C@@H]1OC(=O)c2c1ccc1c2OCO1)OCO3,"inactive and inconclusive: 89.1 µM [inhibitor, single point]",–
Cc1cc(O)c(CN2CCN(c3ccccc3)CC2)cc1C,–,inactive: -1.02%
Cc1cccc(N2CCN(Cc3ccc4c(c3)OCO4)CC2)c1C,active: 50.1 µM,–
CCN(CC)c1ccc(CC2C(=O)N(C)C(=O)N(C)C2=O)cc1,active: 44.7 µM,–
O=C1CC(NC(=O)C(F)(F)F)=NN1c1ccccc1,"inconclusive: 44.7 µM [inhibitor, partial curve]",–
CNS(=O)(=O)c1ccc(-c2ccc(C=C3C(=O)NC(=O)NC3=O)o2)cc1,"inconclusive: 89.1 µM [inhibitor, single point]",–
Cc1ccc(C)c(CN2C(=O)c3ccccc3Sc3ccc(C(=O)N4CCC5(CC4)OCCO5)cc32)c1,–,inactive: -24.4%
Cc1cc(/C=C2/C(=O)NC(=O)N(c3ccc(Br)cc3)C2=O)c(C)n1C,–,inactive: -8.4%
CC(C)(C)NCc1cccn1-c1sc2c(c1C#N)CCCC2,active: 56.2 µM,–
CC(C)Cc1nnc(NC(=O)CCC(=O)N2CCN(CCOC(c3ccccc3)c3ccccc3)CC2)s1,"inconclusive: 50.1 µM [inhibitor, partial curve]",–
COc1ccc(CNCCc2c[nH]c3ccccc23)c(OC)c1OC,–,inactive: -37%
COc1ccccc1N1CCN(Cc2ccc(SC)cc2)CC1,active: 50.1 µM,–
C/C(CCc1c[nH]c2ccccc12)=N\O,–,inactive: -0.449%
CCN(CC)c1ccc(/C=C2\C(=O)NC(=O)N(CC3CCCO3)C2=O)cc1 (configuration not stated),"inconclusive: 56.2 µM [inhibitor, partial curve]",–
COc1cc2c(cc1OC)[C@@H]1C(=O)c3ccc4c(c3O[C@@H]1CO2)C[C@H](C(C)C)O4,"inconclusive: 44.7 µM [inhibitor, partial curve]",–
CN1CCC2(CC1)NC(=O)c1ccccc1N2,–,inactive: -1.72%
CCOC(=O)C1CCN(/C=C2/C(=O)NC(=O)N(c3cccc(C)c3C)C2=O)CC1,"inconclusive: 89.1 µM [inhibitor, single point]",–
CCn1c(CN2CCN(C)CC2)nc2ccccc21,–,inactive: 7.25%
N#Cc1ccccc1OCC(=O)N1CCN(CC(=O)Nc2ccc(F)cc2)CC1,–,inactive: -3.68%
CN(C)c1ccc(/C=C2\C(=O)NC(=O)N(CCc3ccc(F)cc3)C2=O)cc1,"inconclusive: 56.2 µM [inhibitor, partial curve]",–
CN1CCN(c2nc(N)cc(=O)[nH]2)CC1,–,inactive: 2.13%
O=C1Nc2ccccc2C1Cc1nc2ccccc2c(=O)n1-c1ccccc1 (configuration not stated),active: 79.4 µM,–
COc1ccc(N2C(=O)C(Cl)=C(N3CCN(Cc4ccccc4)CC3)C2=O)cc1,"inconclusive: 22.4 µM [inhibitor, full curve]",–
COc1ccc(CNCCc2c(C)[nH]c3ccc(OC(F)(F)F)cc23)c(OC)c1,active: 56.2 µM,–
CCn1c(O)c(C(=O)CC2NCCc3ccccc32)c(=O)n(CC)c1=S (configuration not stated),"inconclusive: 56.2 µM [inhibitor, partial curve, poor fit]",–

SMILES,Potency,"activity change, negative = inhibition"
O=[N+]([O-])c1cc2c(cc1CNCCc1ccc3c(c1)OCO3)OCO2,active: 25.1 µM,–
CCOC(=O)c1c(C)n(COCCO)c2ccc(O)cc12,–,inactive: 7.29%
COc1ccc(OC)c(CN2CCCC(C(=O)c3sccc3C)C2)c1 (configuration not stated),"inconclusive: 79.4 µM [inhibitor, single point]",–
COc1cccc(N2CCN(Cc3cccc(Cl)c3)CC2)c1,–,inconclusive: -44.2% [inhibitor]
O=c1[nH]oc2c1CCNC2,"inconclusive: 89.1 µM [inhibitor, single point]",–
CCC(=O)Nc1cc(C(=O)O)ccc1S(=O)(=O)c1ccc(C)cc1,"inconclusive: 79.4 µM [inhibitor, single point]",–
Cn1cc(C(=O)OCC(=O)Nc2ccccc2)c2ccccc21,–,inactive: 9.94%
CCOC(=O)C(O)(c1ccc(NC(=O)Oc2ccccc2)cc1)C(F)(F)F (configuration not stated),–,inactive: 2.97%
COc1ccc(CNCC(=O)N2CCC3(CC2)OCCO3)cc1,active: 35.5 µM,–
CCN(CC)c1ccc(C=C2C(=O)NC(=S)NC2=O)cc1,active: 50.1 µM,–
Cc1nnc(N2CCC(C(=O)NCc3ccc(N(C)C)cc3)CC2)c2nn(-c3ccccc3)c(C)c12,"inconclusive: 89.1 µM [inhibitor, single point]",–
COc1ccc(-c2nc(CN3C(=O)CN=C(c4ccccc4)c4ccccc43)c(C)o2)cc1OC,"inconclusive: 89.1 µM [inhibitor, single point]",–
CNC(C(=O)c1ccccc1)C(OC)c1ccccc1 (configuration not stated),–,inactive: -37.3%
COc1ccc(NC(=O)c2c(C)nn(Cc3ccccc3Cl)c2Cl)cc1Cl,–,inactive: -5.63%
Cn1c(O)c(C(c2ccccn2)c2c(O)n(C)c(=S)n(C)c2=O)c(=O)n(C)c1=S,active: 5.01 µM,–
c1cncc(C2Nc3cccc4cccc(c34)N2)c1,"inconclusive: 50.1 µM [inhibitor, partial curve]",–
Cc1cccc(-n2c(-c3cccs3)nc3ccccc3c2=O)c1,active: 79.4 µM,–
C/C(CC(=O)Nc1cc(C)ccn1)=N\NC(=O)c1ccncc1,"inconclusive: 89.1 µM [inhibitor, single point]",–
c1ccc(-c2ccc(C(c3ccccc3)n3ccnc3)cc2)cc1 (configuration not stated),active: 20 µM and active: 25.1 µM,–
CCC(=O)Nc1ccc(N2CCN(CC)CC2)c(Cl)c1,"inconclusive: 89.1 µM [inhibitor, single point]",–
Cc1ccc2[nH]c(C)c(CCNCc3cccnc3)c2c1,"inconclusive: 50.1 µM [inhibitor, partial curve]",–
CCCCC(=O)N/N=C/c1c(O)n(-c2cccc3ccccc23)c(=O)[nH]c1=O,active: 79.4 µM,–
COc1ccc(-n2c(/C=C/c3ccc(O)c(O)c3)nc3ccccc3c2=O)cc1,"inconclusive: 89.1 µM [inhibitor, single point]",–
CCOC(=O)C1CCCN(Cc2ccc(-c3ccccc3)cc2)C1 (configuration not stated),"inconclusive: 89.1 µM [inhibitor, single point]",–
O=c1[nH]c(=O)n(Cc2ccccc2)c(O)c1C=NCCN1CCNCC1,–,inactive: 0.608%
CC(C)n1c(=O)c(C=Nc2ccc(F)cc2)c(O)n(Cc2ccco2)c1=O,–,inactive: -1.28%

SMILES,Potency,"activity change, negative = inhibition"
Cc1cc2ccccc2n1CCNC(=O)COc1ccccc1,"inconclusive: 89.1 µM [inhibitor, single point]",–
O=C(O)c1ccc(-n2c(O)c(/C=C3\C=Nc4ccccc43)c(=O)[nH]c2=O)cc1,–,inactive: -16.1%
Fc1ccc(CNCCc2ccccc2F)cc1,–,inactive: 7.43%
CCCCC/C(=N/O)c1c(C)[nH]c2ccccc12,"inconclusive: 50.1 µM [inhibitor, partial curve]",–
Cc1ccc(N2C(=O)NC(=O)/C(=C\c3ccc(N4CCOCC4)cc3)C2=O)cc1,–,inactive: 0.523%
c1ccc(CNCCc2ccc3c(c2)OCO3)nc1,active: 44.7 µM,–
COc1cccc(C2(O)CCN(CC(=O)Nc3nc(C)cs3)CC2)c1,"inconclusive: 89.1 µM [inhibitor, single point]",–
Clc1ccc2c(c1)CCc1cccnc1C2=C1CCNCC1,"inconclusive: 50.1 µM [inhibitor, partial curve]",–
O=C(Nc1ccc2c(c1)OCO2)c1cccn(Cc2ccc(F)cc2)c1=O,"inconclusive: 50.1 µM [inhibitor, partial curve]",–
CN1CC(C(=O)c2ccc(Cl)cc2)C(c2ccc(N(C)C)cc2)C1 (configuration not stated),active: 35.5 µM,–
Cc1ccc(C2=NCC(=O)Nc3ccc(Br)cc32)cc1,–,inactive: 7.89%
CCOc1cc(/C=C2\C(=O)NC(=O)N(C)C2=O)cc([N+](=O)[O-])c1O,–,inactive: -10.8%
CC1N(O)C2CCCCCC2N1O (configuration not stated),"inconclusive: 79.4 µM [inhibitor, single point]",–
Clc1ccccc1CN1CCN(c2ccccc2Cl)CC1,active: 35.5 µM,–
CC(C)c1ccc(CNC(=O)c2ccc(N3CCCC3)c(NC(=O)NCc3ccccc3)c2)cc1,"inconclusive: 89.1 µM [inhibitor, partial curve]",–
Cc1ccc(-n2c(O)c(/C=N/NC(=O)c3ccncc3)c(=O)[nH]c2=O)cc1,active: 50.1 µM,–
CC(C)c1ccc(NC(=O)N2C[C@H]3C[C@@H](C2)c2cccc(=O)n2C3)cc1,–,inactive: 44.6%
CC1=NN(c2ccccc2)C(=O)C1/C=C1\C(=O)NC(=O)N(c2cc(C)cc(C)c2)C1=O (configuration not stated),"inconclusive: 44.7 µM [inhibitor, partial curve]",–
CC(C)C[C@@H](CN(N=O)[C@@H](Cc1ccccc1)CN(C)N=O)N(CCc1ccccc1)N=O,"inconclusive: 50.1 µM [inhibitor, partial curve]",–
CCn1c(O)c(N=Nc2cccc(S(=O)(=O)N3CCOCC3)c2)c(=O)n(CC)c1=S,"inconclusive: 79.4 µM [inhibitor, single point]",–
COc1ccc(CN2CCCCC2c2cccnc2)cc1C (configuration not stated),"inconclusive: 79.4 µM [inhibitor, single point]",–
C=CCN1C(=O)/C(=C/c2ccc(Br)s2)C(=O)NC1=S,active: 56.2 µM,–
CN1CC(C(=O)c2cccs2)C(c2ccc(Cl)cc2)C1 (configuration not stated),–,inactive: -12.4%
NC(=O)Cn1cc(C=C2C(=O)NC(=O)NC2=O)c2ccccc21,"inconclusive: 79.4 µM [inhibitor, single point]",–
Cc1cc(/C=C2/C(=O)NC(=O)N(Cc3ccco3)C2=O)c(C)n1-c1ccccc1O,active: 35.5 µM,–
